Where “and” joins values, the source holds several entries; their conditions need not be identical. Equal entries are not always repeated. About 6,400 (1.6%) of roughly 410,000 compounds were called active. The inconclusive results got no clear call from the source; some entries with a clear call stand among them for comparison. The call rests on the fitted dose curve; in most records, active means well fitted inhibition curve with a large enough effect; inconclusive means small, poorly fitted or top-dose-only effect; inactive means no such curve, though single readings can be large or run the other way. Potencies beside an inconclusive call are fits to weak or partial responses and may not hold up.
Biological target: Glucagon-like peptide 1 receptor (Homo sapiens) (UniProt P43220)
Assay: qHTS of GLP-1 Receptor Inverse Agonists (Inhibition Mode); further: nearly all actives have a fitted effect of over 55% in size
Conditions: HEK293 GLP-1R CRE-luciferase, luminescence, 24 h, GLP-1R form is constitutively active; series mostly up to 38.3 µM
Method in brief: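 HEK293 cells stably co-expressing constitutively active GLP-1R and a cAMP-responsive luciferase reporter were seeded in DMEM with 10% Nu serum, given compounds after 12 h, and incubated 24 h at 37 deg C. Luminescence was then read.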
Potency means the concentration at half of the fitted maximal effect; tags describe the fitted curve by direction and shape.

UniProt P43220, sequence (P43220 whole entry, looked up): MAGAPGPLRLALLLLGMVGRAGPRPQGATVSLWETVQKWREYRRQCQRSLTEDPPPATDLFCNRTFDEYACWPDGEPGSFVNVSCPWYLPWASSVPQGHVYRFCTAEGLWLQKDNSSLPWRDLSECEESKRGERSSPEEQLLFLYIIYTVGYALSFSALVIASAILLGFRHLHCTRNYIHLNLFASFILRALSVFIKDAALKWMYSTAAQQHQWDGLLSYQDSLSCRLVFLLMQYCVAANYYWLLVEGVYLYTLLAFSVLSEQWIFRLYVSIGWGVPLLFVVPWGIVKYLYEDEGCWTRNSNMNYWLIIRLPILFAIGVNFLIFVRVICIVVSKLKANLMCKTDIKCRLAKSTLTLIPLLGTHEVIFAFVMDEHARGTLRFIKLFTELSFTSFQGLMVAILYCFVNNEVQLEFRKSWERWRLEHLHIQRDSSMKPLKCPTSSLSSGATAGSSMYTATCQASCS

Potency, inconclusive:
COC(=O)[C@@]1(Cc2ccc(OC)cc2)[C@@H]2C(=CC(=O)[C@H]2CC(=O)C(=O)N2CCCC2)CN1C(=O)c1ccccc1 12.6 µM [inhibitor, single point]
O=C(c1cc2c(s1)-c1ccccc1S(=O)(=O)C2)N1CCN(Cc2ccccc2)CC1 12.6 µM [inhibitor, single point]
NC(N)=N/N=C/c1ccc2cccc(OCc3ccccc3)c2n1 14.1 µM [inhibitor, single point]
O=C(NCc1ccccc1Cl)c1ccc(NC(=O)N2CCSc3ccccc32)cc1 25.1 µM [inhibitor, partial curve, poor fit]
CC(C)OC(=O)CSc1nc2c(c(C3CC=CCC3)c1C#N)CCC2 (stereo unspecified) 28.2 µM [inhibitor, single point]
COc1ccc(S(=O)(=O)N(CC(=O)Nc2ccc3c(c2)OCO3)c2ccc(C)cc2)cc1 28.2 µM [inhibitor, single point]
COc1ccc(OC)c(NC(=O)c2c(NCc3ccc(N(C)C)cc3)sc3c2CCCC3)c1 28.2 µM [inhibitor, single point]
O=C(Nc1ccc(C(F)(F)F)cc1)C1CCCCN1S(=O)(=O)c1ccccc1 (stereo unspecified) 3.55 µM [inhibitor, partial curve, poor fit]
CCOC(=O)CS(=O)(=O)c1nc(-c2ccccc2)cc(C(F)(F)F)n1 28.2 µM [inhibitor, single point]
Cc1ccc(NC(=O)NC2CCN(S(=O)(=O)c3ccc(F)cc3)CC2)cc1 11.2 µM [inhibitor, partial curve]
CCCCNc1c(-c2ccc(Sc3ccc(OC)cc3)cc2)nc2cc(C)ccn12 11.2 µM [inhibitor, partial curve, poor fit]
COc1ccc([C@@H]2[C@@H]3C(=O)N(C(C)(C)C)C(=O)[C@@H]3[C@]3(Cc4ccc(Cl)cc4)C(=O)N(c4ccc(C)cc4)C(=O)N23)cc1 5.01 µM [inhibitor, full curve]
c1ccc(-c2cn3c4c(sc3n2)CCCC4)cc1 3.16 µM [inhibitor, full curve, poor fit] and 7.08 µM [inhibitor, partial curve, poor fit]
O=C(CSc1ccccc1)Nc1cccc(S(=O)(=O)N2CCCCC2)c1 11.2 µM [inhibitor, single point]
CC1CC(C)CN(C(=S)SCc2nc(N)nc(Nc3ccccc3)n2)C1 (stereo unspecified) 11.2 µM [inhibitor, single point]
COc1ccc(-c2nc3c(c(=O)n(C)c(=O)n3C)n2CC2CC(c3ccccc3)=NO2)cc1OC (stereo unspecified) 0.501 µM [inhibitor, full curve, poor fit]
CCc1ccc(NS(=O)(=O)c2c(-c3ccccc3)csc2C(=O)OC)cc1 8.91 µM [inhibitor, partial curve, poor fit]
Cc1cccc(OCC(=O)N2CCN(C(=O)CCC3CCCC3)CC2)c1 11.2 µM [inhibitor, partial curve, poor fit]
Nc1nonc1-c1nc2ccccc2n1CC(=O)Nc1cccc(Cl)c1Cl 2.51 µM [inhibitor, full curve, poor fit]
CCOC(=O)C1CCCN(S(=O)(=O)c2ccc3ccccc3c2)C1 (stereo unspecified) 10 µM [inhibitor, partial curve, poor fit]
Cc1ccc(Cc2c(-c3ccc(Cl)cc3)nc3ccc(Br)cn23)cc1 10 µM [inhibitor, partial curve, poor fit]
CCOC(=O)c1cccc(C2=CC(=O)C[C@H](c3ccc(OC)cc3)C2)c1 28.2 µM [inhibitor, single point]
O=C(Cn1c(SCC(=O)Nc2ccc(F)cc2)nc2ccccc21)NCc1ccc(Cl)cc1 28.2 µM [inhibitor, single point]
O=C(O)CN1C(=O)/C(=C\c2cc(Br)ccc2OCc2ccc(F)cc2)SC1=S 12.6 µM [inhibitor, single point]
Oc1ccc(Br)cc1/C=N/N1CCN(Cc2ccccc2)CC1 31.6 µM [inhibitor, single point]
CC1CC(C)(C)CC2(C1)NC(=O)N(CC(=O)N1CCN(S(=O)(=O)c3ccc(F)c(F)c3F)CC1)C2=O (stereo unspecified) 28.2 µM [inhibitor, single point]
CC(C)(C)CC(C)(C)N=C1Nc2cc(Cl)c(Cl)cc2NC12C[C@H]1CCC(=O)N3CC[C@@H](C2)[C@@H]13 (stereo partly specified) 6.31 µM [inhibitor, partial curve, poor fit]
COc1ccccc1N1CCN(Cc2ccc(O)c3ncccc23)CC1 0.501 µM [inhibitor, full curve, poor fit]
O=C(Nc1ccc(F)c(Cl)c1)C1CCN(S(=O)(=O)c2ccc3c(c2)CCCN3C(=O)C2CCC2)CC1 20 µM [inhibitor, single point]
COc1ccc(S(=O)(=O)Nc2cc3c(cc2C(C)=O)OCO3)cc1 3.98 µM [inhibitor, full curve]
Cc1ccc(CSc2cn(CCNC(=O)c3cccs3)c3ccccc23)cc1 28.2 µM [inhibitor, single point]
Nc1nnc(SCC(=O)c2ccco2)s1 12.6 µM [inhibitor, single point]
Cc1ccc(NC(=S)NCC2CCN(C(C)c3ccccc3)C2)cc1C (stereo unspecified) 11.2 µM [inhibitor, partial curve, poor fit]
C=CCOc1ccccc1CN1CCC(CO)(CCOc2ccccc2)CC1 11.2 µM [inhibitor, partial curve, poor fit]
Cc1ccc(SCCNS(=O)(=O)c2ccc3c(c2)OCCO3)cc1 28.2 µM [inhibitor, single point]
CC(C)c1nn2c(=O)cc(CSc3ccccc3NC(=O)c3ccccc3F)nc2s1 2.24 µM [inhibitor, full curve, poor fit]
Cc1ccc2nc(N=C(N)N)nc(C)c2c1 31.6 µM [inhibitor, single point]
COc1ccc(F)cc1-c1cc(NC=O)c2ncc(-c3cccc(C(=O)N(C)C)c3)n2c1 28.2 µM [inhibitor, single point]
CN(CC(=O)Nc1cccc(F)c1)C(=O)c1cc(-c2cccs2)nn1-c1ccccc1 10 µM [inhibitor, partial curve, poor fit]
CCCC(=O)Nc1ccc(NC(=O)c2ccccn2)cn1 10 µM [inhibitor, single point]
CCOc1ccc(-c2cc(C(=O)N/N=C/c3ccc(O)cc3)c3ccccc3n2)cc1 1.78 µM [inhibitor, full curve, poor fit]
CCC(C)(C)n1nnnc1C(c1cc(OC)ccc1OC)N1CCN(Cc2ccccc2)CC1 (stereo unspecified) 11.2 µM [inhibitor, partial curve, poor fit]
COc1ccc(NC(=O)CSc2ncc3c(n2)-c2ccccc2N(C)S3(=O)=O)cc1Cl 28.2 µM [inhibitor, single point]
Cc1ccc(S(=O)(=O)Cn2nnnc2C(C(C)C)N2CCSCC2)cc1 (stereo unspecified) 12.6 µM [inhibitor, single point]
O=C(Cn1ncc(Cl)c(Cl)c1=O)Nc1ccc2c(c1)OCO2 28.2 µM [inhibitor, single point]
CCCCCCc1ccc(N2C[C@H](Cc3ccccc3)[C@@H](CC(=O)NCc3ccc(OC)cc3)C2=O)cc1 12.6 µM [inhibitor, partial curve]
CN(CC(=O)Nc1ccccc1C(F)(F)F)Cc1c(O)ccc2ccccc12 14.1 µM [inhibitor, single point]

Potency, inactive:
COc1ccc(C[C@H]2COC(=O)[C@@H]2Cc2ccc(OC3OC(CO)C(O)C(O)C3O)c(OC)c2)cc1OC (stereo partly specified)
O=C(OCC(=O)N1CCOCC1)c1cc(=O)[nH]c2ccccc12
O=C(COC(=O)c1ccc(Cl)c([N+](=O)[O-])c1)NC1CCCC1
CC(C)Sc1nc2sc3c(c2c(=O)n1-c1ccccc1)CCCC3
CC(=O)c1ccc(N2C(=O)Nc3ccccc3S2(=O)=O)cc1
COC(=O)c1ccc(/C=N/n2cnnc2)cc1
COc1ccc(NC(=O)C(=O)NNC(=O)c2cccs2)c(OC)c1
O=[N+]([O-])c1ccc(S(=O)(=O)Nc2ncccn2)cc1
O=C(/C=C/c1ccco1)NC(=S)Nc1cc(-c2nc3ccccc3s2)ccc1Cl
CC(=O)c1cccc(N=c2scc(-c3ccc(S(=O)(=O)N4CCOCC4)cc3)n2CCO)c1
CCN(CC1COc2ccccc2O1)C(=S)Nc1ccccc1 (stereo unspecified)
CO[C@@]1(NC(=O)CSCC#N)C(=O)N2C(C(=O)O)=C(CSc3nnnn3C)CS[C@@H]21

Potency, active:
CCn1ccnc1CN(C)Cc1cn(-c2cccc(C)c2)nc1-c1cccc(F)c1 12.6 µM
O=C(NCCN1C(=O)S/C(=C\c2ccccc2F)C1=O)C1=COCCO1 1 µM
